This note sets out measurements from patent publication US20230414781A1 (BLISS BIOPHARMACEUTICAL HANGZHOU, published 2023).

In experiment [1] the target is T1, B7-H3 on B7-H3-expressing cancer cells (UniProt Q5ZPR3 29-534, limits assumed).
T1 construct: whole, on cells; Endogenous expression on tumour cell lines; also called B7-H3 expressing cells; CD276
T1 sequence (looked up): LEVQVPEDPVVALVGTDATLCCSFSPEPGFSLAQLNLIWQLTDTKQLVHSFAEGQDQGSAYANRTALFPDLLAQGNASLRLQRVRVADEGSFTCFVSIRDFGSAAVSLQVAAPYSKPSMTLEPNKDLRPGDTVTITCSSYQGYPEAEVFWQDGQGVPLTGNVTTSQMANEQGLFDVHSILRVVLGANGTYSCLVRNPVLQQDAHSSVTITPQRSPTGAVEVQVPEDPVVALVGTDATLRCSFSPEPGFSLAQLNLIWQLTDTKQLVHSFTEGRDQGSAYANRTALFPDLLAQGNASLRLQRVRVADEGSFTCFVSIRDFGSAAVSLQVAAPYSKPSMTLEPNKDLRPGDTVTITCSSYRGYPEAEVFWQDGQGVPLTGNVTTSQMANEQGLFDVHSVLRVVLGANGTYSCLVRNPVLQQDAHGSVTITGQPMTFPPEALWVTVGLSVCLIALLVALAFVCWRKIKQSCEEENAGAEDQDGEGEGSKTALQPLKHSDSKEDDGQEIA
The experiment is described as follows: FACS on BT-474 (breast) cells. Here is the method:
(§1) Screening for B7-H3-expressing cells were performed using FACS with 27B4H4L3 antibody and MFI of 27B4H4L3 to those cells shown in Table 2. FACS assay was also used to exam and compare the binding capabilities of the 27B4H4L3 antibody, BH73 antibody, 27B4H4L3-MMAE and BH73-Eribulin to B7-H3-expressing cells. To perform the assay, target cells and samples were incubated at 4° C. for 1 h. After wash, samples and secondary antibody (goat pAb to human IgG (FITC) (Abcam, ab97224)) were incubated. FACS was performed on […] (BD, Accuri C6 Plus) and mean fluorescence intensity (MFI) was reported. Three cell lines (U87MG, BT-474 and HT-29) representing B7-H3 high- and low-expressing cells were used to compare binding capacities of different antibody constructs and ADCs.

Experiment [2] has as its target T1, B7-H3 on B7-H3-expressing cancer cells. The experiment is described as follows: FACS on HT-29 (colon) cells. Here is the method: as §1
Experiment [3] shares this target. Description: FACS on U87 (glioma) cells. As for the experimental part:
as §1

B1: BH73 antibody (antibody)
heavy: EVQLVQSGAEVKKPGESLKISCKASGYTFTTYWIGWVRQMPGKGLEWMGIIYPGDGGSRYSPSFQGQVTISADKSISTAYLQWSSLKASDTAMYYCARGGNYISFPMYYWGQGTLVTVSSASTKGPSVFPLAPCSRSTSESTAALGCLVKDYFPEPVTVSWNSGALTSGVHTFPAVLQSSGLYSLSSVVTVPSSNFGTQTYTCNVDHKPSNTKVDKTVEPPKSDCKTKTVE[human IgG1 Fc not printed]
light: EIVMTQSPATLSVSPGERATLSCKASRGVSTALAWYQQKPGQAPRLLIYWASTRATGIPARFSGSGSGTEFTLTISSLQSEDFAVYYCQQHYDTPYTFGQGTKLEIKRTVAAPSVFIFPPSDEQLKSGTASVVCLLNNFYPREAKVQWKVDNALQSGNSQESVTEQDSKDSTYSLSSTLTLSKADYEKHKVYACEVTHQGLSSPVTKSFNRGEC
notes: also called clone BH73
Take B1: the MFI in experiment [1] came out at 133000 MFI; in experiment [2], 71500 MFI; in experiment [3], 333000 MFI.

B2: BH73-MMAE (antibody, DAR 2)
heavy: EVQLVQSGAEVKKPGESLKISCKASGYTFTTYWIGWVRQMPGKGLEWMGIIYPGDGGSRYSPSFQGQVTISADKSISTAYLQWSSLKASDTAMYYCARGGNYISFPMYYWGQGTLVTVSSASTKGPSVFPLAPCSRSTSESTAALGCLVKDYFPEPVTVSWNSGALTSGVHTFPAVLQSSGLYSLSSVVTVPSSNFGTQTYTCNVDHKPSNTKVDKTVEPPKSDCKTKTVE[human IgG1 Fc not printed]
light: EIVMTQSPATLSVSPGERATLSCKASRGVSTALAWYQQKPGQAPRLLIYWASTRATGIPARFSGSGSGTEFTLTISSLQSEDFAVYYCQQHYDTPYTFGQGTKLEIKRTVAAPSVFIFPPSDEQLKSGTASVVCLLNNFYPREAKVQWKVDNALQSGNSQESVTEQDSKDSTYSLSSTLTLSKADYEKHKVYACEVTHQGLSSPVTKSFNRGEC
modifications: MC-Val-Cit-PAB-MMAE drug-linker on cysteines of partially reduced inter-chain disulfide bonds; predominantly DAR2, minor DAR0 and DAR4; positions not given
notes: predominantly DAR2; also called ADC made of BH73 antibody
Take B2: the MFI was determined as 71300 MFI in experiment [2] and 321000 MFI in experiment [3].
